# Test results reported in PubChem BioAssay AID2675 (National Center for Advancing Translational Sciences (NCATS), 2010).
# The whole screen tested about 280,000 compounds, of which about 100 (0.036%) were called active. The shares of active, inactive and inconclusive entries below differ from those in the screen. Calls follow the shape of the dose curve; as a rule, active = well fitted inhibition curve with a large enough effect in the signal ratio, with a control signal flat (not every such curve was filed as active); inconclusive = small, poorly fitted or top-dose-only effect, or effect the other way, or a change in a side signal; inactive = no such curve, though single readings can be large or run the other way; the % refers to the signal ratio. Where the call is inconclusive, the potency comes from a doubtful curve fit. A note “side channel” means that the fit belongs to a control or component signal, not to the main read-out.
# Molecular target: Muscleblind-like protein 1 (Homo sapiens) (UniProt Q9NR56)
# Chain of UniProt Q9NR56 (Q9NR56 whole entry, looked up): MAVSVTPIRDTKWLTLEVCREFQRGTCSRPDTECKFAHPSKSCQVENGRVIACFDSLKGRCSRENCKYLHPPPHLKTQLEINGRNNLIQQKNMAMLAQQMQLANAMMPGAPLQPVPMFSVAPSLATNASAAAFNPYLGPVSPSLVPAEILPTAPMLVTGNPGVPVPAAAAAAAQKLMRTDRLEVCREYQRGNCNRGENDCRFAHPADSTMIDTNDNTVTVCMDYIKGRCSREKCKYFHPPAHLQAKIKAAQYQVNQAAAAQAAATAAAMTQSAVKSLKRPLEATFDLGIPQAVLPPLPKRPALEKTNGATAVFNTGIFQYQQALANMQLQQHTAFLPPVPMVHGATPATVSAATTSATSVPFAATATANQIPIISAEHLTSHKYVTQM
# Assay: qHTS Assay for Inhibitors of MBNL1-poly(CUG) RNA binding
# Details: TR-FRET MBNL1-His/biotin-(CUG)12 binding, 665/545 ratio; series mostly up to 57.5 µM
# How it was run: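 Inhibition of protein-RNA binding appears as loss of TR-FRET between terbium anti-His antibody on MBNL1-His and streptavidin-XL665 on biotin-(CUG)12. Activity is normalized to buffer-only and uninhibited-complex controls.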
# Potency is read from the fitted curve at half-maximal effect; tags tell the direction and shape of the fitted curve or compound fluorescence and quenching.
row,Structure (SMILES),Potency
1,CCc1ccc(N2CC(C(=O)N/N=C/c3cccc([N+](=O)[O-])c3)CC2=O)cc1 (centres undefined),"inconclusive: 17.8 µM [quencher, side channel, partial curve]"
2,Cc1noc(C)c1S(=O)(=O)N1CCN(c2ccccc2)CC1,"inconclusive: 22.4 µM [quencher, side channel, partial curve, poor fit]"
3,CCN1CCCC1CNc1ncnc2c1[nH]c1ccc(Cl)cc12 (centres undefined),inactive
4,CC(C)(C)NC(=O)c1cccc2c1C(=O)c1ccccc1-2,"inconclusive: 10 µM [quencher, side channel, partial curve]"
5,O=C(O)c1ccc(NCc2ccc3c(c2)OCO3)cc1,inactive
6,CCOC(=O)N1CCN(C(=S)NC(=O)/C=C/c2ccc(C)cc2)CC1,inactive
7,CSc1ccc(/C=N/NC(=O)C[n+]2ccccc2)cc1,"inconclusive: 31.6 µM [quencher, side channel, single point]"
8,O=c1oc2c(O)c(O)cc3c(=O)oc4c(O)c(O)cc1c4c23,"inconclusive: 79.4 µM [inhibitor, partial curve, poor fit]"
9,Cc1cccc(OCCNc2cc(N3CCOCC3)ccc2[N+](=O)[O-])c1,"inconclusive: 6.31 µM [quencher, side channel, full curve, poor fit]"
10,COc1cc2nc(Nc3ccc(C)c(C)c3)nc(N)c2cc1OC,inactive
11,COc1cc2[nH]c(=S)nc(NCCc3ccc(C)cc3)c2cc1OC,inactive
12,CN(C)S(=O)(=O)c1ccc(Cl)c(C(=O)Nc2cccc([N+](=O)[O-])c2)c1,"inconclusive: 25.1 µM [quencher, side channel, partial curve]"
13,CCOc1ccc(S(=O)(=O)N(CC(=O)N/N=C/c2ccc(-c3ccc([N+](=O)[O-])cc3)o2)c2ccccc2)cc1,"inconclusive: 35.5 µM [quencher, side channel, partial curve, poor fit]"
14,CCCc1cc(C(=O)Cc2ccc(F)cc2)c(O)cc1O,inactive
15,Cc1cccc2cc(-c3nc4ccc(C(=O)O)cc4[nH]3)c(=O)oc12,"inconclusive: 7.08 µM [quencher, side channel, partial curve]"
16,O=C(/C(C=Nc1ccc(F)cc1)=C(/O)c1ccco1)C(F)(F)F,"inconclusive: 3.16 µM [quencher, side channel, single point]"
17,Cc1noc(C)c1CN1C(=O)c2cccc([N+](=O)[O-])c2C1=O,"inconclusive: 12.6 µM [quencher, side channel, partial curve]"
18,COc1ccc(-n2nnnc2S(=O)(=O)Cc2ccc(C(=O)O)cc2)cc1,inactive
19,S=c1[nH]nc(-c2ccc(Cl)cc2)n1/N=C/C=C/c1ccco1,inactive
20,N#C/C(=C\c1ccccc1[N+](=O)[O-])C(=O)NCc1ccccc1,"inconclusive: 25.1 µM [quencher, side channel, single point]"

row,Structure (SMILES),Potency
1,Cc1cccc(NC(=S)N2CCCN(c3ncccc3[N+](=O)[O-])CC2)c1,"inconclusive: 39.8 µM [quencher, side channel, single point]"
2,CN1c2ccccc2C(C)(C)C12C=Nc1c(ccc3ccccc13)O2 (centres undefined),"inconclusive: 12.6 µM [quencher, side channel, partial curve]"
3,CCOC(=O)c1[nH]c2ccc(OC)cc2c1NC(C)=O,"inconclusive: 28.2 µM [quencher, side channel, partial curve, poor fit]"
4,O=C(CCNS(=O)(=O)c1cccc2nsnc12)NCc1ccccc1Cl,"inconclusive: 14.1 µM [quencher, side channel, partial curve]"
5,COc1ccc2c(c1)O/C(=C\c1ccco1)C2=O,"inconclusive: 10 µM [quencher, side channel, partial curve]"
6,CNC(=O)/C(C#N)=C/c1ccc(-c2ccc(Cl)cc2)o1,"inconclusive: 2.82 µM [quencher, side channel, full curve, poor fit]"
7,CC(C)OC(=O)Nc1ccc2c(c1)N(C(=O)CCN1CCN(CCO)CC1)c1ccccc1CC2,"inconclusive: 100 µM [inhibitor, single point]"
8,CC1=C/C(=C(/c2cc(C)c(O)c(Br)c2)c2ccccc2S(=O)(=O)O)C=C(Br)C1=O,"inconclusive: 12.6 µM [quencher, side channel, partial curve]"
9,CC(=O)C(Sc1nc(-c2ccc(F)cc2)nc2c1c(=O)n(C)c(=O)n2C)C(C)=O,"inconclusive: 39.8 µM [fluorescent, single point]"
10,c1cncc(-c2nnc3sc(C4CCCCC4)nn23)c1,"inconclusive: 6.31 µM [quencher, single point]"
11,CCNC(=S)N(CCc1ccccc1C)Cc1cc2cc(OC)c(OC)cc2[nH]c1=O,inactive
12,CC1CCCCC1NC(=O)/C(C#N)=C/c1ccc2c(c1)OCCO2 (centres undefined),inactive
13,Cc1ccc(Nc2nc(/N=C/N(C)C)n[nH]2)cc1C,"inconclusive: 0.708 µM [fluorescent, side channel, single point]"
14,Cc1nc2ccc(NC(=O)/C=C/C(=O)O)cc2nc1C,"inconclusive: 25.1 µM [quencher, side channel, partial curve]"
15,CC(C)=NNc1nc(-c2ccccc2)cs1,"inconclusive: 8.91 µM [quencher, side channel, single point]"
16,COc1ccc(NC(=O)/C(C#N)=C/c2ccc(Br)o2)cc1,"inconclusive: 3.16 µM [quencher, side channel, single point]"
17,CC(=O)N1N=C(c2ccc([N+](=O)[O-])cc2)CC1c1ccccc1Cl (centres undefined),"inconclusive: 12.6 µM [quencher, side channel, partial curve]"
18,O=C(NCc1ccco1)c1ccc2nccnc2c1,"inconclusive: 14.1 µM [quencher, side channel, partial curve]"
19,CC(=O)N=c1sc2nc3ccccc3nc2n1N(C(C)=O)C(C)=O,"inconclusive: 15.8 µM [quencher, side channel, partial curve]"
